In PubChem BioAssay AID624296 (National Center for Advancing Translational Sciences (NCATS), 2012):
Out of some 350,000 compounds screened, about 9,900 (2.8%) were called active. Inconclusive results, whose numbers are uncertain, are shown with a selection of clear calls. Calls follow the shape of the dose curve; as a rule, active = well fitted activation curve with a large enough effect; inconclusive = small, poorly fitted or top-dose-only effect; inactive = no such curve, though single readings can be large or run the other way. No potency is given beside an inconclusive call; the fits are too rough.

assay: A quantitative high throughput screen for small molecules that induce DNA re-replication in MCF 10a normal breast cells.; also: nearly all actives have a fitted effect of over 50% in size; as to activity, positive = re-replication: % of control where 0% means no effect; settings: MCF 10A DNA re-replication, Hoechst nuclear intensity, 48 h; activity, positive = re-replication: at 46.1 µM (top of the series)
Potency is read from the fitted curve at half-maximal effect; tags tell the direction and shape of the fitted curve.

For `Cc1csc(NC(=O)c2cc3ccccc3o2)n1`, which “activity, positive = re-replication” value is on record?
The value was inactive: 4.17%.

With `O=C(Nc1ccccc1C(=O)Nc1nnc(C(F)(F)F)s1)c1ccccc1` as the compound, how does the Potency read?
The Potency was inconclusive [activator, partial curve, poor fit].

With `CC(=O)Nc1cccc(NC(=O)c2cc(-c3cccnc3)nc3ccc(Br)cc23)c1` as the compound, how does the Potency read?
Its Potency is active: 11.6 µM.

For `COc1cc(/C=C/C(O)=C/C(=O)/C=C/c2ccc(O)cc2)ccc1O`, which Potency is on record?
The Potency was active: 18.4 µM.

With `CC(C)(C)c1ccc(CSc2ccc(S(=O)(=O)N3CCOCC3)cn2)cc1` as the compound, how does the Potency read?
Its Potency is inconclusive [activator, partial curve, poor fit].

With `CCCc1cc(NCc2ccccn2)n2c(nc3ccccc32)c1C#N` as the compound, how does the Potency read?
The Potency was inconclusive [activator, full curve].

Which Potency does the source give for `CC(/C=N/N1CCN(c2ccc(C)cc2)CC1)=C\c1ccccc1` here?
Its Potency is inconclusive [activator, partial curve, poor fit].

With `COC(=O)C(C)Sc1ncnc2c1nnn2-c1ccc(F)cc1` (configuration not stated) as the compound, how does the Potency read?
Its Potency is inconclusive [activator, single point].

Which “activity, positive = re-replication” value does the source give for `CN(c1ccccc1)S(=O)(=O)c1ccc(C(=O)Nc2ccncc2)cc1` here?
Its value is inactive: 10.8%.

With `O=C(CN1C(=O)C(=O)N(Cc2ccco2)C1=O)Nc1ccccc1` as the compound, how does the “activity, positive = re-replication” value read?
Its value is inactive: -0.939%.

For `Cc1cccc(NC(=O)c2cnn3ccccc23)c1C`, which Potency is on record?
The Potency was inconclusive [activator, partial curve, poor fit].

Which Potency does the source give for `COc1ccc(NC(=O)CN(C)C(=O)c2cccc(S(=O)(=O)N3CC4(C)CC3CC(C)(C)C4)c2)cc1` (configuration not stated) here?
The Potency was inconclusive [activator, partial curve, poor fit].

For `COc1cccc(C(=O)O/N=C(\N)c2ccc([N+](=O)[O-])cc2)c1OC`, which “activity, positive = re-replication” value is on record?
Its value is inactive: 4.03%.

For `O=C(COc1ccc(-n2cnnn2)cc1)Nc1ccc(Br)cc1F`, which “activity, positive = re-replication” value is on record?
Its value is inactive: 6.81%.

Which “activity, positive = re-replication” value does the source give for `CC1CCCCC12NC(=O)N(CC(=O)NCCc1c[nH]c3ccccc13)C2=O` (configuration not stated) here?
Its value is inactive: -1.73%.

Which Potency does the source give for `CC1(O)CC(c2ccc(Cl)cc2)=NN1C(=O)c1ccc(Cl)cc1` (configuration not stated) here?
The Potency was active: 11.6 µM.

With `CC1CCN(S(=O)(=O)c2ccc(NC(=O)C3CC(=O)N(c4ccccc4)C3)cc2)CC1` (configuration not stated) as the compound, how does the Potency read?
The Potency was inconclusive [activator, single point].

Which Potency does the source give for `CC(C)c1ccc(/C=N/n2c(COc3ccccc3)n[nH]c2=S)cc1` here?
Its Potency is active: 20.6 µM.

For `Cc1ccc(S(=O)(=O)c2cn(C)c3cc(N4CCN(C)CC4)c(F)cc3c2=O)cc1`, which Potency is on record?
The Potency was inconclusive [activator, single point].

Which Potency does the source give for `Cc1noc2ncnc(Oc3ccc(Cl)cc3Cl)c12` here?
The Potency was inconclusive [activator, single point].

Which Potency does the source give for `Cc1cc(C)nc(N2CCN(c3ccc(F)cc3)CC2)n1` here?
Its Potency is inconclusive [activator, single point].

Which Potency does the source give for `CCn1c(=O)c(C(=O)CN2CCc3ccccc32)c(N)n(Cc2ccccc2)c1=O` here?
Its Potency is inconclusive [activator, partial curve, poor fit].

Which Potency does the source give for `COc1cc(/C=C(\C#N)C(=O)Nc2ccc3c(c2)OCCO3)ccc1O` here?
Its Potency is inconclusive [activator, single point].

For `CCCCn1c(/C=N/Nc2nc3ccccc3[nH]2)nc2ccccc21`, which Potency is on record?
The Potency was inconclusive [activator, single point].

With `O=C(Cc1cccs1)N1CCN=C1SCc1ccccc1Cl` as the compound, how does the Potency read?
Its Potency is inconclusive [activator, single point].

For `CCC(COC(=O)c1ccccc1)Oc1cc(NCc2ccccc2)c2ncn(C(C)C)c2c1` (configuration not stated), which Potency is on record?
The Potency was inconclusive [activator, single point].

Which Potency does the source give for `Cc1[nH]n(-c2ccccc2)c(=O)c1C(C[N+](=O)[O-])c1ccc(Cl)cc1` (configuration not stated) here?
Its Potency is inconclusive [activator, single point].

For `COc1ccc(-n2ccc(=O)c3c2CCCC3=O)cc1`, which “activity, positive = re-replication” value is on record?
Its value is inactive: -15.1%.

For `O=C(CCCCCn1c(=S)[nH]c2ccc(N3CCOCC3)cc2c1=O)NCc1ccc2c(c1)OCO2`, which Potency is on record?
The Potency was inconclusive [activator, single point].

Which “activity, positive = re-replication” value does the source give for `COc1ccc(OCCNC(=S)Nc2cccc3ccccc23)cc1` here?
Its value is inactive: 9.4%.

With `O=C(Nc1nc(-c2ccccn2)cs1)Nc1ccc(F)cc1F` as the compound, how does the “activity, positive = re-replication” value read?
Its value is inactive: 14%.

Which “activity, positive = re-replication” value does the source give for `COc1ccc(/C=C2\N=C(SC)NC2=O)cc1` here?
The value was inactive: 6.76%.

For `O=C(NCCN1CCN(c2ccccc2)CC1)c1ccc(NC(=O)C2CCCO2)cc1` (configuration not stated), which “activity, positive = re-replication” value is on record?
The value was inactive: 3.18%.

For `Cc1ccc(S(=O)(=O)N2CCOCC2)cc1NC(=O)COc1ccc2c(C)cc(=O)oc2c1`, which Potency is on record?
The Potency was inconclusive [activator, single point].

Which Potency does the source give for `O=C(COC(=O)c1cccc([N+](=O)[O-])c1)Nc1ccc(Cl)cn1` here?
Its Potency is inconclusive [activator, single point].

Which “activity, positive = re-replication” value does the source give for `CC(C)Sc1sc(C(=O)O)c(-c2ccc(Cl)cc2)c1C#N` here?
Its value is inactive: -2.15%.

For `O=P(Cc1cccc2ccccc12)(c1ccccc1)c1ccccc1`, which “activity, positive = re-replication” value is on record?
Its value is inactive: 2.35%.

Which Potency does the source give for `CCOC(=O)c1cnc2sc3c(n2c1=O)CCCC3` here?
The Potency was inconclusive [activator, single point].

For `Cc1ccc(Cl)cc1N1CCN(C(=O)CSc2nnc3n2C(C)(C)Cc2ccccc2-3)CC1`, which Potency is on record?
The Potency was active: 13 µM.

With `CC(C)N1C/C(=C/c2ccsc2)C(=O)/C(=C/c2ccsc2)C1` as the compound, how does the Potency read?
The Potency was active: 8.2 µM.

With `CC1=C(C(=O)Nc2ccc(CC(=O)NCc3ccc(OC(C)C)cc3)cc2)SCCO1` as the compound, how does the Potency read?
The Potency was active: 0.326 µM.

For `COc1ccc2cc3c(N)nn(C(=O)Cc4c[nH]c5ccccc45)c3nc2c1`, which Potency is on record?
The Potency was inconclusive [activator, partial curve, poor fit].

Which “activity, positive = re-replication” value does the source give for `COc1cc(NC(=O)CN(C)Cc2ccc(OC(F)F)cc2)c(C)cc1[N+](=O)[O-]` here?
Its value is inactive: 28.5%.

For `Cc1ccc2c(c1)N(CC(=O)N1CCN(c3ccccc3)CC1)C(=O)C(C)O2` (configuration not stated), which “activity, positive = re-replication” value is on record?
Its value is inactive: 17.5%.

Which Potency does the source give for `Cc1[nH]c2ccc(-c3n[nH]c(=S)n3C)cc2c1C` here?
Its Potency is inconclusive [activator, partial curve, poor fit].

For `O=C(Nc1cccc(F)c1)C1CCCN(C(=O)c2ccc(Cl)cc2)C1` (configuration not stated), which “activity, positive = re-replication” value is on record?
The value was inactive: -4.72%.

With `CC(C)(C)c1ccc(-c2n[nH]c(=S)n2Cc2ccccc2)cc1` as the compound, how does the Potency read?
The Potency was inconclusive [activator, single point].
